# Experimental data: the supplement of paper PMC6531468
# Some of the results follow. Values come from read counts of a selection and are noisy. Each score is taken over the longer molecules that contain the sequence shown.
# Experiments:
# Assay in all cases: 6-mer SELEX enrichment z-score vs GST control; IMP3 is the RNA-binding protein IGF2BP3; higher = more enriched by binding
# IMP3 RRM1-2 = conditions: construct: RRM1-2 (1-163); SELEX round: R2
# Procedure: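 SELEX-seq with GST-tagged IMP3 RRM1-2 (Met1-Asn163) and an N40 RNA pool, round 2. 6-mer enrichment z-score normalised to GST SELEX. RNA written as DNA (T = U).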
# IMP3 full-length = IMP3 full-length (UniProt O00425); conditions: construct: FL IMP3 (1-579); SELEX round: R4
# Procedure: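 SELEX-seq with GST-tagged full-length IMP3 and an N40 RNA pool, round 4. Each 6-mer is scored as an enrichment z-score of sequence tags containing it, normalised to the matching GST SELEX round. RNA written as DNA (T = U).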
# IMP3 KH1-2 = conditions: construct: KH1-2 (164-376); SELEX round: R4
# Procedure: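 SELEX-seq with GST-tagged IMP3 KH1-2 (Pro164-Phe376) and an N40 RNA pool, round 4 (stringent 300/600 mM KCl washes). 6-mer z-score of sequence-tag enrichment normalised to the corresponding GST SELEX round; RNA k-mers written as DNA (T for U).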
# IMP3 KH3-4 = conditions: construct: KH3-4 (377-579); SELEX round: R4
# Procedure: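 SELEX-seq with GST-tagged IMP3 KH3-4 (Pro377-Lys579) and an N40 RNA pool, round 4. 6-mer z-score of sequence-tag enrichment normalised to the corresponding GST SELEX round; RNA k-mers written as DNA (T for U).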
# UniProt O00425, sequence (O00425 whole entry): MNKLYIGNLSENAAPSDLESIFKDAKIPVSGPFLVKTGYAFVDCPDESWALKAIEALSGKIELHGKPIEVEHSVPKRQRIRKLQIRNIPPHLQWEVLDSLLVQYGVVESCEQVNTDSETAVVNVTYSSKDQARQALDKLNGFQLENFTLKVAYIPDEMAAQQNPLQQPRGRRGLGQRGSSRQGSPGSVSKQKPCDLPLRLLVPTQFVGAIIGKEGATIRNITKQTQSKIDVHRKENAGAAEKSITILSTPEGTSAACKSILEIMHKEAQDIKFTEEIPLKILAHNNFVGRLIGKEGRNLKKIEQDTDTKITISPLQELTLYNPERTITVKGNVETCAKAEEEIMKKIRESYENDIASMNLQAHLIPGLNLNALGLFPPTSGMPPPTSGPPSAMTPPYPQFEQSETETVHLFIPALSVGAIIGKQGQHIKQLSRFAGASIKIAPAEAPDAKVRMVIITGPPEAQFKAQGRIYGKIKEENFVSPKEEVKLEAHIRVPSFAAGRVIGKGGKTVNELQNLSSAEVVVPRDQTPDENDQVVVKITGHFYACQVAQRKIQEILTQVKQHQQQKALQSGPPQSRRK
# IMP3 KH3-4, sequence (chain, as listed by the source): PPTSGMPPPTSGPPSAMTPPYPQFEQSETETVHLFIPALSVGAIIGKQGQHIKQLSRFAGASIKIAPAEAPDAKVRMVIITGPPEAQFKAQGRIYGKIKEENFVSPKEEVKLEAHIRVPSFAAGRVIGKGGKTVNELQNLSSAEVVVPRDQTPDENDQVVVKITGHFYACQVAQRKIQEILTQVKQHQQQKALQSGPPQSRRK
# IMP3 KH1-2, sequence (chain, as listed by the source): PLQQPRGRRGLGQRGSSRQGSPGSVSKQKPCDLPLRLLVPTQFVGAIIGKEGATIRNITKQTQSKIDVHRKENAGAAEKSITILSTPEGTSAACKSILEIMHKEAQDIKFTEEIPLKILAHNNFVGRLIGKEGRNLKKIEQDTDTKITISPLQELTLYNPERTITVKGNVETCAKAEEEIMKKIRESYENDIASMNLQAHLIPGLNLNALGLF
# IMP3 RRM1-2, sequence (chain, as listed by the source): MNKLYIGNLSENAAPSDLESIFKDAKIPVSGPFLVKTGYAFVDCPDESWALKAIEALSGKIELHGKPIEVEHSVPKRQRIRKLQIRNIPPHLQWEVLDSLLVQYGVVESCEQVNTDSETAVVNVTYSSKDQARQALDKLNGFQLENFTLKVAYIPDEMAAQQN
sequence,measurement,setting,value
ATGTAC,6-mer SELEX enrichment z-score,IMP3 RRM1-2,-0.117
same,6-mer SELEX enrichment z-score,IMP3 full-length,0.041
same,6-mer SELEX enrichment z-score,IMP3 KH1-2,0.091
same,6-mer SELEX enrichment z-score,IMP3 KH3-4,0.203
ATGGGA,6-mer SELEX enrichment z-score,IMP3 RRM1-2,-0.204
same,6-mer SELEX enrichment z-score,IMP3 full-length,0.201
same,6-mer SELEX enrichment z-score,IMP3 KH1-2,0.655
same,6-mer SELEX enrichment z-score,IMP3 KH3-4,0.958
CTCCGC,6-mer SELEX enrichment z-score,IMP3 RRM1-2,-0.072
same,6-mer SELEX enrichment z-score,IMP3 full-length,0.074
same,6-mer SELEX enrichment z-score,IMP3 KH1-2,0.021
same,6-mer SELEX enrichment z-score,IMP3 KH3-4,-0.714
CGGGTG,6-mer SELEX enrichment z-score,IMP3 RRM1-2,0.025
same,6-mer SELEX enrichment z-score,IMP3 full-length,-0.072
same,6-mer SELEX enrichment z-score,IMP3 KH1-2,-0.537
same,6-mer SELEX enrichment z-score,IMP3 KH3-4,-0.486
TGTCTT,6-mer SELEX enrichment z-score,IMP3 RRM1-2,0.477
same,6-mer SELEX enrichment z-score,IMP3 full-length,0.053
same,6-mer SELEX enrichment z-score,IMP3 KH1-2,-0.054
same,6-mer SELEX enrichment z-score,IMP3 KH3-4,0.054
GGGGCC,6-mer SELEX enrichment z-score,IMP3 RRM1-2,-0.017
same,6-mer SELEX enrichment z-score,IMP3 full-length,0.66
same,6-mer SELEX enrichment z-score,IMP3 KH1-2,0.936
same,6-mer SELEX enrichment z-score,IMP3 KH3-4,0.422
ACCGTG,6-mer SELEX enrichment z-score,IMP3 RRM1-2,-0.681
same,6-mer SELEX enrichment z-score,IMP3 full-length,-0.439
same,6-mer SELEX enrichment z-score,IMP3 KH1-2,-0.59
same,6-mer SELEX enrichment z-score,IMP3 KH3-4,-0.929
GGCTTC,6-mer SELEX enrichment z-score,IMP3 RRM1-2,0.6
same,6-mer SELEX enrichment z-score,IMP3 full-length,0.403
same,6-mer SELEX enrichment z-score,IMP3 KH1-2,0.044
same,6-mer SELEX enrichment z-score,IMP3 KH3-4,0.086
CATAAA,6-mer SELEX enrichment z-score,IMP3 RRM1-2,0.435
same,6-mer SELEX enrichment z-score,IMP3 full-length,1.01
same,6-mer SELEX enrichment z-score,IMP3 KH1-2,1.85
same,6-mer SELEX enrichment z-score,IMP3 KH3-4,1.95
CATGCT,6-mer SELEX enrichment z-score,IMP3 RRM1-2,0.529
same,6-mer SELEX enrichment z-score,IMP3 full-length,0.496
same,6-mer SELEX enrichment z-score,IMP3 KH1-2,0.398
same,6-mer SELEX enrichment z-score,IMP3 KH3-4,0.229
AATGGG,6-mer SELEX enrichment z-score,IMP3 RRM1-2,-0.29
same,6-mer SELEX enrichment z-score,IMP3 full-length,-0.077
same,6-mer SELEX enrichment z-score,IMP3 KH1-2,0.405
same,6-mer SELEX enrichment z-score,IMP3 KH3-4,0.888
ACGGAG,6-mer SELEX enrichment z-score,IMP3 RRM1-2,-0.766
same,6-mer SELEX enrichment z-score,IMP3 full-length,-0.058
same,6-mer SELEX enrichment z-score,IMP3 KH1-2,-0.237
same,6-mer SELEX enrichment z-score,IMP3 KH3-4,-0.093
